Among all 350,000 compounds or so, about 31,000 (8.9%) were called active. The shares of active, inactive and inconclusive entries below differ from those in the screen. The call rests on the fitted dose curve; in most records, active means well fitted inhibition curve with a large enough effect; inconclusive means small, poorly fitted or top-dose-only effect; inactive means no such curve, though single readings can be large or run the other way. Potencies beside an inconclusive call are fits to weak or partial responses and may not hold up.
biological target: Histone-lysine N-methyltransferase EHMT2 (Homo sapiens) (UniProt Q96KQ7); test: qHTS Assay for Inhibitors of Histone Lysine Methyltransferase G9a; conditions: G9a H3K9 monomethylation, AlphaScreen, 2 h; activity, negative = inhibition: at 59 µM (top of the series) unless noted; further: nearly all actives have a fitted effect of over 75% in size
Procedure, shortened: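 Using a bead-based AlphaScreen, monomethylated H3K9 product from 2 h room-temperature reactions (G9a 20 nM, peptide 500 nM, SAM 20 uM) was detected with 0.5 ug/mL rabbit anti-H3K9me1 antibody.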
On the % scale 0 is the no-effect control and ±100 the full control effect; potency means the concentration at half of the fitted maximal effect; tags describe the fitted curve by direction and shape.

Chain of UniProt Q96KQ7 (Q96KQ7 whole entry, looked up): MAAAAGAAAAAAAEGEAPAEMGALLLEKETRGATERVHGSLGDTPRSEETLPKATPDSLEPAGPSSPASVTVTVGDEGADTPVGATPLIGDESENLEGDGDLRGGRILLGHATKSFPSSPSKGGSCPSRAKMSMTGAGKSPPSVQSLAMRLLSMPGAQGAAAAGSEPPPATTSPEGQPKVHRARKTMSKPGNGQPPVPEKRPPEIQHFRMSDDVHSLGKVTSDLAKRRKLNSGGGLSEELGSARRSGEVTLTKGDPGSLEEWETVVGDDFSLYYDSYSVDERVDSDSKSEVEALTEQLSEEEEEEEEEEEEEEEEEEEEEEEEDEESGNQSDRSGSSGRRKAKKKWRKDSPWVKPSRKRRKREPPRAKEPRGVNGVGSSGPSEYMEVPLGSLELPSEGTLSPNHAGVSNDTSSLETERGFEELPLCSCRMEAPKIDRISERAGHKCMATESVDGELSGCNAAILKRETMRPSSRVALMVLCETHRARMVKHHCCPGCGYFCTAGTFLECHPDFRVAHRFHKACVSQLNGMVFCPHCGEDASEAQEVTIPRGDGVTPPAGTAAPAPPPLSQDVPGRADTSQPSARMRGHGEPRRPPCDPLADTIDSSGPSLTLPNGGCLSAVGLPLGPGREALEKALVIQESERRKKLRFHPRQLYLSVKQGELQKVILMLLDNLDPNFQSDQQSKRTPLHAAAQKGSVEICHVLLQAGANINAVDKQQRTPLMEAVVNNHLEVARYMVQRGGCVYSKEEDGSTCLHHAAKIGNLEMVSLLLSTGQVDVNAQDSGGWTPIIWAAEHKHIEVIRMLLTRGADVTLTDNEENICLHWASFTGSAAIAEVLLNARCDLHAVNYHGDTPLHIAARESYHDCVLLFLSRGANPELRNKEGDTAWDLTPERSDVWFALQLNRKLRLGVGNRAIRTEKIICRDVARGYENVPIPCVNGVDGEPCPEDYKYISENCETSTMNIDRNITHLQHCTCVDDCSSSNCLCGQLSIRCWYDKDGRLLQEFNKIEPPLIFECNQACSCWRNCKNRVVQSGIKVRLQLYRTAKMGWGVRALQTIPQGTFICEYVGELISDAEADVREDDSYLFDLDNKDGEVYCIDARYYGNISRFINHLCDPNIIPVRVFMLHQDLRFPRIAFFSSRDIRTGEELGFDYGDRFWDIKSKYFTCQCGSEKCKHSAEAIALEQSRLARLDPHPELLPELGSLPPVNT

SMILES | activity, negative = inhibition | Potency
CCCCCCOc1ccc(C2C(=O)N(C3CCCCC3)CC(=O)N2C2CCCCC2)cc1 (stereo not drawn) | inactive: 3.66% | –
COc1ccc(/C(O)=C/C(=O)C(=O)NNC(=O)C(O)(c2ccccc2)c2ccccc2)cc1 | inactive: -17.9% [at 102 µM] | –
CCN(CC)c1nc2cc(OC)ccc2cc1C#N | inactive: 74.2% [at 12.7 µM] | –
Cc1c(C(=O)NCc2cccnc2)sc2nc(-c3ccc(F)cc3)cn12 | – | active: 44.7 µM
O=[N+]([O-])c1ccc(/C=[N+](\[O-])CCO)o1 | – | inconclusive: 89.1 µM [inhibitor, single point]
O=C1C2CCCN2C(=S)N1c1ccccc1 (stereo not drawn) | – | inconclusive: 89.1 µM [inhibitor, single point]
CC1CCN(C(=O)COC(=O)c2cc(S(=O)(=O)N3CCOCC3)ccc2Cl)CC1 | – | inconclusive: 70.8 µM [inhibitor, partial curve, poor fit]
Cc1ccc(NC(NC(=O)OCCn2c([N+](=O)[O-])cnc2C)C(Cl)(Cl)Cl)cc1 (stereo not drawn) | – | inconclusive: 1.78 µM [inhibitor, full curve]
CCC1=C/C(=C/c2sc3ccccc3[n+]2CC)CC(C)(C)C1 | – | active: 5.01 µM
Cc1cc2ncn(C(=O)c3ccc4c(c3)OCO4)c2cc1C | inactive: 9.51% [at 102 µM] | –
SC(COCc1ccccc1)CN1CCN(Cc2ccc3c(c2)OCO3)CC1 (stereo not drawn) | – | active: 22.4 µM
Cc1noc(/C=C/c2ccco2)c1S(=O)(=O)N1CCC(C(=O)N(C)Cc2ccccc2)CC1 | inconclusive: -84% [inhibitor] | –
CCOC(=O)C1CCN(C(=O)CCCN2C(=O)c3ccccc3C2=O)CC1 | – | inconclusive: 70.8 µM [inhibitor, partial curve, poor fit]
Cc1ccc2cccc(NC(=S)NC(=O)c3ccn(C)n3)c2n1 | – | inconclusive: 3.55 µM [inhibitor, single point]
CCOC(=O)N1CCN(C(=O)CCCCn2c(=S)[nH]c3ccsc3c2=O)CC1 | – | active: 31.6 µM
Cc1cccc2c(N=Nc3ccc(S(=O)(=O)Nc4ccc(Cl)cc4)cc3[N+](=O)[O-])c(O)[nH]c12 | – | inconclusive: 44.7 µM [inhibitor, partial curve]
CC(C)(C)CC(=O)Nc1nnc(-c2cccs2)s1 | – | inconclusive: 14.1 µM [inhibitor, partial curve, poor fit]
O=C(C1=C(O)C(=O)N(CC2CCCO2)C1c1ccc(Cl)cc1Cl)c1ccco1 (stereo not drawn) | – | inconclusive: 89.1 µM [inhibitor, single point]
Cc1ccc(Nc2ccc(C(N)=O)cc2[N+](=O)[O-])cc1C | – | inconclusive: 22.4 µM [inhibitor, single point]
O=c1cc(N2CCN(c3cccc(Cl)c3)CC2)[nH]c(=O)n1C1CCCCC1 | – | inconclusive: 89.1 µM [inhibitor, single point]
Cc1nn(-c2ccccc2)c2nc(C(Cl)(Cl)Cl)[nH]c(=O)c12 | inactive: -35% [at 102 µM] | –
Cc1ccc(-n2ncc(C(=O)NCc3ccco3)c2C2CCN(C(=O)OC(C)(C)C)CC2)cc1C | – | inconclusive: 22.4 µM [inhibitor, partial curve, poor fit]
O=C(COc1ccc2c(c1)oc(=O)c1ccccc12)NCC1CCC(C(=O)O)CC1 (stereo not drawn) | inactive: -5.11% [at 12.7 µM] | –

SMILES | activity, negative = inhibition | Potency
COc1ccc(CSc2nnc(-c3ccncc3)n2N)cc1 | – | inconclusive: 70.8 µM [inhibitor, single point]
CCN1CCN(C(=S)Nc2ccc(Cl)c(Cl)c2)CC1 | – | inconclusive: 3.55 µM [inhibitor, full curve]
COc1ccc(-n2c(Cc3cccn3C)nnc2SCC(=O)Nc2ccc(C)cc2)cc1 | – | active: 35.5 µM
O=C(CSc1nc(-c2cccc(F)c2)[nH]c1-c1ccccc1)Nc1ccc2c(c1)OCO2 | – | inconclusive: 10 µM [inhibitor, partial curve]
CCN(CC)S(=O)(=O)c1cc(-c2nnc(-c3ccc(Br)cc3)o2)ccc1Br | – | inconclusive: 14.1 µM [inhibitor, single point]
O=C(O)c1cc(Cl)c(Cl)cc1C(=O)Nc1cccc2cccnc12 | – | inconclusive: 89.1 µM [inhibitor, single point]
Cc1ccccc1-c1ccc(Nc2ccc(N3CCOCC3)cc2)nn1 | – | inconclusive: 39.8 µM [inhibitor, single point]
O=C(N/N=C/c1c(O)n(Cc2ccccc2)c(=O)c2ccccc12)c1cccnc1 | inactive: 9.03% [at 102 µM] | –
Cc1ccc(N=c2c([N+](=O)[O-])nn(-c3ccc4c(c3)OCCO4)n2O)cc1F | – | inconclusive: 17.8 µM [inhibitor, full curve]
Cc1c(C(=O)Nc2cc(F)ccc2F)sc2nc(-c3ccc(F)cc3)cn12 | inactive: 27.3% | –
CCn1cc(C(=O)NCCCN(C)c2ccccc2)c(=O)c2cc(S(=O)(=O)N(C)C)ccc21 | – | inconclusive: 39.8 µM [inhibitor, single point]
CSc1nc(NC(C)=O)nc(C)c1Cl | – | inconclusive: 25.1 µM [inhibitor, single point]
Cc1cc(N2CCCCC2)nc(SCC(=O)c2ccccc2)n1 | – | inconclusive: 50.1 µM [inhibitor, partial curve, poor fit]
O=C(c1cccs1)N1CCN(C(=O)c2ccco2)c2ccccc2C1 | – | inconclusive: 79.4 µM [inhibitor, partial curve, poor fit]
CCCCN(C(=O)CSc1nnnn1-c1ccccc1OC)C1CCS(=O)(=O)C1 (stereo not drawn) | – | inconclusive: 89.1 µM [inhibitor, partial curve, poor fit]
COc1ccc(NC(=O)/C=C\C(=O)N(c2ccc(C(C)C)cc2)C(C(=O)NCc2ccco2)c2ccc(C)cc2)cc1 (stereo not drawn) | – | inconclusive: 17.8 µM [inhibitor, partial curve, poor fit]
COc1ccc(NC(=O)c2cc3cc(C)ccc3n2C)c(OC)c1 | – | inconclusive: 35.5 µM [inhibitor, single point]
CCOC(=O)C1CCCN(Cc2cccs2)C1 (stereo not drawn) | – | inconclusive: 7.08 µM [inhibitor, single point]
Cc1nc2ccccn2c(=O)c1NC(=O)c1cccc(F)c1 | inactive: 1.21% | –
O=C(NNC(=O)NC1CCCCC1)NC1CCCCC1 | – | inconclusive: 50.1 µM [inhibitor, partial curve, poor fit]
Cc1c(CCC(=O)N[C@@H](CCCNC(N)=O)C(=O)O)c(=O)oc2cc3oc4c(c3cc12)CCCC4 | inactive: -4.83% [at 102 µM] | –
O=C(C1=C[C@@H](c2ccc(C(F)(F)F)cc2)C[C@@H](OCc2ccc(CO)cc2)O1)N1CCN(Cc2ccc3c(c2)OCO3)CC1 | inconclusive: -63.5% [inhibitor] | –
O=C(CSc1ccc(-c2ccco2)nn1)NCc1ccccc1 | – | inconclusive: 25.1 µM [inhibitor, single point]

SMILES | activity, negative = inhibition | Potency
CCCCOc1ccc(C(=O)N/C(=C/c2cccc([N+](=O)[O-])c2)C(=O)O)cc1 | – | inconclusive: 50.1 µM [inhibitor, partial curve, poor fit]
O=C(Nc1ccc(Cl)cn1)c1ccccc1[N+](=O)[O-] | – | inconclusive: 79.4 µM [inhibitor, single point]
CC1(C)Cc2ccccc2C(NNC(=O)c2cccnc2)=N1 | – | inconclusive: 20 µM [inhibitor, single point]
Cc1ccc(NC(=S)N2CC(C)OC(C)C2)cc1C (stereo not drawn) | – | inconclusive: 15.8 µM [inhibitor, partial curve]
Cc1ccccc1C(=O)NNC(=O)C(C)N1C(=O)c2ccccc2C1=O (stereo not drawn) | – | active: 11.2 µM
Clc1ccc(C[n+]2csc3ccccc32)cc1 | – | inconclusive: 79.4 µM [inhibitor, single point]
COc1cccc(CN2CCNC(=O)C2CC(=O)N2CCCCO2)c1OC (stereo not drawn) | – | active: 70.8 µM
COc1cc(Cl)c(C)cc1NC(=O)COC(=O)C1=COCCO1 | inactive: -48.2% [at 102 µM] | –
Cc1ccc(NC(Cc2cc(C)no2)c2ccccc2)cc1 (stereo not drawn) | – | inconclusive: 89.1 µM [inhibitor, single point]
Cc1nc2ccc(NC(=O)c3ccc(Cl)c([N+](=O)[O-])c3)cc2s1 | – | inconclusive: 89.1 µM [inhibitor, single point]
CCCCN1C(=O)c2ccc(C(=O)NCc3ccco3)cc2C1=O | – | inconclusive: 7.94 µM [inhibitor, partial curve, poor fit]
CCOc1cc(/C=C2\CCCc3c2nc2ccccc2c3C(=O)O)ccc1OC | – | inconclusive: 10 µM [inhibitor, full curve, poor fit]
CCN(c1ccccc1)S(=O)(=O)c1ccc(C(=O)N(CCN(C)C)c2nc3c(F)cc(F)cc3s2)cc1 | – | active: 44.7 µM
COc1ccc(NC2c3ncccc3C(=O)N2Cc2cccs2)cc1 (stereo not drawn) | – | active: 50.1 µM
CCCCc1ccc(-n2c(Cc3cccs3)n[nH]c2=S)cc1 | – | active: 1.78 µM
COc1ccccc1Cc1nc(-c2ccc(Br)o2)no1 | – | inconclusive: 89.1 µM [inhibitor, single point]
Cc1ccc(S(=O)(=O)N(C)c2ccc(C(=O)N(CC(C)C)C3CCS(=O)(=O)C3)cc2)cc1 (stereo not drawn) | inactive: -26.9% [at 102 µM] | –
CCCc1cc(=O)[nH]c(SCC(=O)Nc2c(C)cccc2C)n1 | inactive: 1.87% [at 102 µM] | –
Cc1ccc(N(Cc2cc3ccc(C)cc3[nH]c2=O)S(C)(=O)=O)c(C)c1 | inactive: -37.7% [at 102 µM] | –
NC(=O)c1cc(N=Nc2c(N)[nH]n(-c3c(Cl)cc(Cl)cc3Cl)c2=O)ccc1Cl | – | inconclusive: 50.1 µM [inhibitor, partial curve]
COc1ccc(C(=O)N2CCN(C3CCCCC3)CC2)cc1OC | – | active: 10 µM
CC1C(=O)N(Cc2cccc(F)c2)c2ccccc2N1C(=O)c1ccccc1 (stereo not drawn) | inactive: 3.48% [at 102 µM] | –
